The whole screen tested about 310,000 compounds, of which about 14,000 (4.5%) showed an effect of 50% or more. The effect is printed as a negative number. The list shows a part of the results.
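Further: peak tail current of the secondary pulse compared with the same well before compound.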

For this experiment, the target named is human ether-à-go-go-related gene (hERG) potassium channel (human, UniProt Q12809). The experiment in a line: primary screen, population patch clamp on CHO cells stably expressing hERG.
human ether-à-go-go-related gene (hERG) potassium channel, sequence (Q12809 whole entry, looked up): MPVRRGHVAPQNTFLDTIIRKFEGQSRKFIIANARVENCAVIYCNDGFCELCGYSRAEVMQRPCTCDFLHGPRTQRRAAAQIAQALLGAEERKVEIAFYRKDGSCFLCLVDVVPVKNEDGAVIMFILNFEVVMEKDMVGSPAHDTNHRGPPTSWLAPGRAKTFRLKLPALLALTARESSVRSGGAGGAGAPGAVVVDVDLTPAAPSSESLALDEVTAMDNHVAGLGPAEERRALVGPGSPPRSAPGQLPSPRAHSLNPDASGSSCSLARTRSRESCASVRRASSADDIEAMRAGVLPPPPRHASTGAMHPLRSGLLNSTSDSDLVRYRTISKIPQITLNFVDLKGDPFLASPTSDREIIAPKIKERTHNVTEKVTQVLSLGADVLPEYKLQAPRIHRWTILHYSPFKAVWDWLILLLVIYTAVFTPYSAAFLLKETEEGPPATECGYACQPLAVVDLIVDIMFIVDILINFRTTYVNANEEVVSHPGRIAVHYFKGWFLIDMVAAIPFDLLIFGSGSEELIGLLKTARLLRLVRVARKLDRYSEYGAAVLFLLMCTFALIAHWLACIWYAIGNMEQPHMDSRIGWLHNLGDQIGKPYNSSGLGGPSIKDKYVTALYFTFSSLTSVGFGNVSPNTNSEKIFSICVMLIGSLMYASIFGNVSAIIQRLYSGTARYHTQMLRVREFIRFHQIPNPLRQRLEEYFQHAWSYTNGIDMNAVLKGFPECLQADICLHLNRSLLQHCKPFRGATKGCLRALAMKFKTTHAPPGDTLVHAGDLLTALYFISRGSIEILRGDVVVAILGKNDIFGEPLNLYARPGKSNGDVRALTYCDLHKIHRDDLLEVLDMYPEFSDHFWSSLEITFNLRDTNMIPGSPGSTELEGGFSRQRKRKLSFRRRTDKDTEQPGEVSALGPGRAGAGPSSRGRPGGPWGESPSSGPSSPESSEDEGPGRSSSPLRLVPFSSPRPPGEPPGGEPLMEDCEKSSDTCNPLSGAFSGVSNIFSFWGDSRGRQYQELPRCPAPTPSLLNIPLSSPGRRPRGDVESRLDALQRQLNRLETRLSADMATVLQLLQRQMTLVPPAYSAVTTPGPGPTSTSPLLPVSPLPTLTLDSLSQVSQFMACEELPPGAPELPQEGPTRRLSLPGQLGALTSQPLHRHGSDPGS
Regarding `CC(=O)Nc1cccc(-n2nnc(SCC(=O)Nc3ccccc3)n2)c1`, the “hERG current change (%, negative = inhibition) at 10uM” value is given as 13%. The figure for `C=CCOc1c(Br)cc(CNn2nnnc2N)cc1OC` is 6.16%; for `O=C(Nc1cc(C(F)(F)F)ccc1Cl)C(Sc1ccccn1)c1ccccc1` (stereo not drawn) it is 11.1%; for `CC(=O)Nc1ccc(S(=O)(=O)N2CCN(Cc3ccncc3)CC2)cc1` it is -8.67%.

With `O=C(O)C(Cc1ccc(O)cc1)N1C(=O)c2ccccc2C1=O` (stereo not drawn), the “hERG current change (%, negative = inhibition) at 10uM” value amounted to 4.9%. For `O=C(CCC(=O)c1cccs1)NNC(=O)c1ccccc1O`, the “hERG current change (%, negative = inhibition) at 10uM” value worked out at 0.144%. The figure for `CC(C)C(C(=O)NCc1ccco1)N(CC1CCCO1)C(=O)CNS(=O)(=O)c1ccc(F)cc1` (stereo not drawn) is -4.42%; for `Cc1ccccc1CN1CCCN(Cc2ccc(Cl)cc2)S1(=O)=O` it is -1.63%. The figure for `CCOc1ccc(/C(O)=C2/C(=O)C(=O)N(CC3CCCO3)C2c2cccs2)cc1` (stereo not drawn) is 8.12%; for `COc1ccc(CNC(=O)CCS(=O)(=O)c2ccc3c(c2)CCN3C(C)=O)cc1` it is 12.3%; for `CCCCN(CCCC)C(=O)c1cc2ccccc2c(=O)o1` it is -0.403%. Turning to `COc1cccc(C2=CC(=O)C[C@H](c3ccc4c(c3)OCO4)C2)c1OC`, the “hERG current change (%, negative = inhibition) at 10uM” value was 1.22%.

With `COc1ccc(NC(=O)CCCC(=O)c2ccccc2)cc1`, the “hERG current change (%, negative = inhibition) at 10uM” value worked out at 24.1%. Consider `COC(=O)c1ccc(CN2CCCC(C(=O)c3cc(F)ccc3OC)C2)cc1` (stereo not drawn), for which the “hERG current change (%, negative = inhibition) at 10uM” value is recorded as -68%. The figure for `Cl.NCCCNc1ccc([N+](=O)[O-])cc1C(F)(F)F` is -15%; for `O=C(NCc1cccnc1)C1c2ccccc2C(=O)N1Cc1ccccc1` (stereo not drawn) it is 0.956%. The figure for `O=C(NCc1ccccc1CN1CCCC1)c1cccc(S(=O)(=O)N2CCCC2)c1` is -55.1%; for `C/C(=N\NC(=S)NC1CCCCC1)c1cccc(Br)c1` it is 12%. The figure for `COc1cccc(CN2CCC(n3nccc3NC(=O)C3CC3)CC2)c1` is -44.7%.

On to `CCOc1ccccc1N(CC(=O)N/N=C(\C)c1cccc(Br)c1)S(C)(=O)=O`, for which the “hERG current change (%, negative = inhibition) at 10uM” value stood at 8.73%. The figure for `O=C(Nc1ccccc1O)c1ccc2c(c1)C(=O)N(Cc1ccco1)C2=O` is 5.13%; for `CNc1nc(N)c([N+](=O)[O-])c(Nc2cccc(Cl)c2)n1` it is 3.64%. The figure for `CCC(CC)c1nnc(NC(=O)C2COc3ccccc3O2)s1` (stereo not drawn) is 0.247%; for `NC(=O)C1(NC(=O)[C@@H]2CC3(CC(c4cccc(NC(=O)[C@@H]5CCC(=O)N5)c4)=NO3)CN2C(=O)Cc2ccc(C(F)(F)F)cc2)CC1` (stereo partly drawn) it is 12.8%; for `CCC(=O)Nc1c2c(nn1-c1ccccc1C)CSC2` it is 7.53%. The figure for `COc1ccc(Nc2cc(C)nc3ccccc23)cc1.Cl` is -36.5%; for `CC(C)Cn1c(SCC(=O)N2CCOCC2)nc2ccccc2c1=O` it is -5.9%; for `Cc1ccc(OCCCC(=O)Nc2ccc(N3CCOCC3)cc2)c(C)c1` it is 8.49%. On to `Cc1ccccc1C(=O)N(C)Cc1ccccc1`, for which the “hERG current change (%, negative = inhibition) at 10uM” value is on record as -2.82%. Regarding `COc1ccccc1Nc1ncc(C(=O)N2CCN(Cc3ccc(OC)c(OC)c3OC)CC2)c2ccccc12`, the “hERG current change (%, negative = inhibition) at 10uM” value was -27.7%. Regarding `CCn1cc(/C=C/C(=O)Nc2c(C)nn(Cc3ccccc3)c2C)cn1`, the “hERG current change (%, negative = inhibition) at 10uM” value is reported as 0.487%. The figure for `CN(C)c1ccc(C2NCCS2)cc1` (stereo not drawn) is 14.9%. The figure for `COc1ccc(-c2[nH]ncc2CNCCCSC)cc1F` is -20.7%.

Turning to `CCOC(=O)C1=C(N)N2C(=O)C(C)SC2=C(C(=O)OC)C1c1cccc(OC)c1` (stereo not drawn), the “hERG current change (%, negative = inhibition) at 10uM” value was -2.26%. The figure for `O=C1CCCN1CCCNS(=O)(=O)c1ccc(F)c(F)c1` is -5.66%; for `O=C(N/N=C/c1c(O)n(Cc2ccc(F)cc2)c(=S)[nH]c1=O)c1ccncc1` it is 6.35%.

As for `COC(=O)C1=C(c2c(C)noc2C)C[C@@H]2CC[C@H]1N2C(=O)NCCOc1ccc(OC)cc1`, the “hERG current change (%, negative = inhibition) at 10uM” value amounted to 7.23%. The figure for `COc1c(C)cccc1C(=O)Nc1ccc(CN2CCCCC2)cc1` is -30.7%. The figure for `CCCCn1c(N)c(N(CCOC)C(=O)CCNC(=O)c2ccc(Cl)cc2)c(=O)[nH]c1=O` is 8.33%; for `Cc1cc2ccccc2c(=O)[nH]1` it is 16.5%.

Turning to `CCC(O)(CC)C(=O)N/N=C/c1cc(Br)cc(Br)c1O`, the “hERG current change (%, negative = inhibition) at 10uM” value is recorded as -1.02%.

Consider `COc1cc(C)nc(N2CCC(C(=O)NC3CCCCC3)CC2)n1`, for which the “hERG current change (%, negative = inhibition) at 10uM” value is -3.08%. The figure for `COc1ccc(/C=C/c2ccncc2)c2ccccc12` is 9.43%. The figure for `O=C(c1cc(COc2ccc(F)cc2Cl)on1)N1CCC(OCc2cccnc2)CC1` is -75.8%. The figure for `CN(CCCN1CCOCC1)C(=O)c1cc(COc2c(F)cccc2F)on1` is 2.44%; for `COc1ccc(CNC(=O)C[C@H]2C(=O)N(c3ccccc3)C[C@@H]2Cc2ccccc2)cc1` it is -49.4%; for `CCC(=O)Nc1cccc(-c2nc3ccccc3c(=O)o2)c1` it is 13%. In the case of `Cc1cc2[nH]c(=O)c(=O)[nH]c2cc1S(=O)(=O)NCc1ccc(Cl)cc1`, the “hERG current change (%, negative = inhibition) at 10uM” value is reported as -0.128%.

Regarding `O=C(CN1C(=O)/C(=C/c2ccccc2F)SC1=S)NC1C=CS(=O)(=O)C1` (stereo not drawn), the “hERG current change (%, negative = inhibition) at 10uM” value is listed as 11.9%. The figure for `CC(C)OCCCn1c(=O)c2ccccc2n2c(CCC(=O)NCc3ccccn3)nnc12` is -14.4%. The figure for `CN(C)C(=O)CN(c1ccc(F)c(Cl)c1)S(C)(=O)=O` is 9.09%.

In the case of `Cc1cccc(CC(=O)Nc2ccc(C(=O)N3CCOCC3)cc2)c1`, the “hERG current change (%, negative = inhibition) at 10uM” value stood at 12.5%.

`CCOC(=O)c1ccc(NC(=O)CSc2nnc(CC)o2)cc1`: the “hERG current change (%, negative = inhibition) at 10uM” value came to 0.222%.

Turning to `Cc1cc(NC(=O)CCC(=O)N(Cc2ccco2)C2(C(=O)NC3CCCC3)CCC(C)CC2)no1` (stereo not drawn), the “hERG current change (%, negative = inhibition) at 10uM” value is -4.65%.

For the molecule `Br.CC12CN3CC(C)(CN(C1)C3c1cc3ccccc3[nH]1)C2=O` (stereo not drawn), the “hERG current change (%, negative = inhibition) at 10uM” value is given as -2.36%. For the molecule `COc1ccccc1N1CCN(C(=O)C2=CC=CN3CCS(=O)(=O)N=C23)CC1`, the “hERG current change (%, negative = inhibition) at 10uM” value was determined as 28.2%. Regarding `O=C(Nc1ccc(C2=NCCN2)cc1)c1ccc(C(=O)Nc2ccc(C3=NCCN3)cc2)c([N+](=O)[O-])c1`, the “hERG current change (%, negative = inhibition) at 10uM” value amounted to 20.1%. The figure for `O=C(NC1CC1)C(=O)c1c[nH]c2ccccc12` is 18.2%; for `Cc1onc(-c2c(Cl)cccc2Cl)c1C(=O)NN1CCCCCC1` it is -7.15%; for `C#CCOCCOCCOCCNc1nc(N2CCN(C(=O)[C@H](CCC(=O)O)n3cc(C(N)CC(C)C)nn3)CC2)nc(N2CCN(C(=O)[C@H](Cc3cc4ccccc4[nH]3)n3cc(C(N)CC(C)C)nn3)CC2)n1.Cl` (stereo partly drawn) it is 9.13%. The figure for `CCn1c(SCC(=O)N2CCCC2)nc2ccccc2c1=O` is -23%; for `S=c1[nH]nc(COc2ccc3ccccc3c2)o1` it is 20.4%; for `Cc1cc(C(=O)N2CCN(Cc3ccc4c(c3)OCO4)CC2)cs1` it is -43.2%. The figure for `Cc1ccc(C(=O)Nc2nc3ccc(S(C)(=O)=O)cc3s2)o1` is -0.566%. Regarding `Cc1noc(C)c1COc1ccccc1C(=O)N(C)Cc1ccc(C(C)(C)C)cc1`, the “hERG current change (%, negative = inhibition) at 10uM” value is listed as -27.4%. The figure for `Cc1cccc(NC(=O)c2cc(S(=O)(=O)N3CCC4(CC3)OCCO4)ccc2F)c1` is -22%; for `O=C(COC(=O)c1ccc(O)cc1O)Nc1nnc(-c2ccccc2)o1` it is 15.4%; for `Cc1ccc2nc(NCCC(=O)O)nc(-c3ccccc3)c2c1` it is 3.76%. As to `COc1ccc(CN2CCCC(N3CCN(c4cccc(Cl)c4)CC3)C2)cc1OC` (stereo not drawn), the “hERG current change (%, negative = inhibition) at 10uM” value is -54.1%.

Regarding `O=C(CSc1nnnn1-c1ccccc1Cl)Nc1ccc2c(c1)OCCO2`, the “hERG current change (%, negative = inhibition) at 10uM” value was determined as 15%. The figure for `CCn1c(=O)oc2cc(NC(=O)CCl)ccc21` is 35.1%; for `Cc1nnc2sc(SCC(=O)Nc3cccc(Cl)c3)nn2c1=O` it is -47.5%.

In the case of `Cc1cccc(C)c1NC(=O)CSc1ncnc2nc[nH]c12`, the “hERG current change (%, negative = inhibition) at 10uM” value is listed as -0.01%.

With `COC(=O)CSc1nc2ccccc2c(=O)n1C`, the “hERG current change (%, negative = inhibition) at 10uM” value is 5.6%. The figure for `O=C(Cc1coc2ccc3ccccc3c12)Nc1nccs1` is 1.87%; for `CNC(=O)c1ccc(C)c(NC(=O)C2=C(C)OCCS2)c1` it is -14.8%. The figure for `COc1cc(-c2nnc3sc(-c4ccncc4)nn23)cc(OC)c1OC` is -8.25%; for `COc1cc(/C=C/C(=O)OCC(=O)c2c(N)n(C)c(=O)n(C)c2=O)ccc1O` it is 17.6%; for `O=C(COc1ccccc1)NC1CCCCC1` it is 2.93%.

Turning to `Fc1ccc(N2CCN(c3ncnc4nc[nH]c34)CC2)cc1`, the “hERG current change (%, negative = inhibition) at 10uM” value is given as -7.41%.

On to `Nc1ccccc1C(=O)OCCOc1ccccc1`, for which the “hERG current change (%, negative = inhibition) at 10uM” value was found to be 4.28%. The figure for `COCCn1c(=N)c(S(=O)(=O)c2ccc(F)cc2)cc2c(=O)n3cccc(C)c3nc21` is -22.5%; for `CCN(CC)CCCn1c(C)cc2c(c1=O)C(c1ccccc1)C(C#N)=C(N)O2` (stereo not drawn) it is -17%. Consider `COc1cccc(C(=O)NCCS(=O)(=O)NC(C)CCc2ccccc2)c1` (stereo not drawn), for which the “hERG current change (%, negative = inhibition) at 10uM” value is on record as -43.8%.

With `COc1ccccc1C(=O)COC(=O)c1cc([N+](=O)[O-])ccc1N1CCOCC1`, the “hERG current change (%, negative = inhibition) at 10uM” value is on record as -13.3%. For `CCOC(=O)CSc1nc2c(c(=O)[nH]c(=O)n2C)n1CCCc1ccccc1`, the “hERG current change (%, negative = inhibition) at 10uM” value is reported as -19.6%. The figure for `Cc1ccc(S(=O)(=O)N(C(=N)N)c2nc(N(C)C)nc(N(C)C)n2)cc1` is 4.96%.
